Reference: ChEMBL document CHEMBL4888484, “Replenishing the malaria drug discovery pipeline: Screening and hit evaluation of the MMV Hit Generation Library 1 (HGL1) against asexual blood stage Plasmodium falciparum ,using a nano luciferase reporter read-out” (2022)
The whole screen tested about 150,000 compounds, of which about 540 (0.36%) showed an effect of 50% or more. This is one part of the list.

Each compound was assayed on Plasmodium falciparum (assay: Primary screen in NF54 nanoGlo assay, in single point, at 2uM, 72h; a lower Z score goes with more inhibition). Conditions: timepoint 72 hour.
Format: functional, Erythrocyte

| Compound | % Inhibition [%] | Z score |
| --- | --- | --- |
| COc1ccc(N2C(=O)NC(=O)C3(Cc4ccccc4N4CCOCC43)C2=O)cc1 (stereo not drawn) | -11 | 1.69 |
| Cn1cc(C(=O)Cc2ccccc2)c2ccccc21 | -18 | 2.34 |
| CC(=O)N[C@H]1C[C@H]2CN(Cc3c(C)noc3C)[C@@H](C)C(=O)N2C1 | -16 | 1.45 |
| O=C(O)[C@H](C1CC1)N1CCN(C(=O)COc2ccc(Br)cc2)CC1 | -8 | 1.02 |
| O=C1CCN(C(=O)c2ccc(Cl)c(Cl)c2)CC1 | 38 | -1.21 |
| O=C(COC1CCCCC1)N1CCC2(CC1)OCCO2 | -13 | 1.41 |
| CCc1cc(N2C[C@@H](c3cccc(OC)c3)[C@@H]3[C@H]2C2CCN3CC2)ncn1 | 1 | -0.11 |
| O=C(CCN1C[C@H]2c3ccccc3OC[C@@]2(C(=O)O)C1)NC1CCCCC1 | -3 | 0.44 |
| O=C(Cn1ccc2ccccc2c1=O)NC12CCCN(CC1)C2 (stereo not drawn) | -10 | 1.73 |
| CCN1CC[C@H]2OCCN(c3nc(C)nc4[nH]ccc34)[C@H]2C1 | -1 | 0.13 |
| COc1ccc2c(ccn2CC(=O)N2CCC3(CC2)OCCO3)c1 | 1 | -0.16 |
| CN1CCCC2CN(c3ccc(Br)cn3)CCC21 (stereo not drawn) | -16 | 1.83 |
| COCc1cc(CN[C@@H](C)Cc2ccccc2F)n[nH]1 | 25 | -3.12 |
| COc1nc(C)cc(C)c1Cn1cnc2c(cnn2C)c1=O | -12 | 1.47 |
| O=C(C[C@H]1CCCO1)N1CCC(N(C(=O)C(F)(F)F)c2cccnc2)CC1 | 4 | -0.57 |
| Cc1cc(C)c(CNc2ncccc2C#N)c(=O)[nH]1 | -13 | 1.97 |
| CC[C@H](C)Oc1cccc2c1cc(C(=O)NCc1ccncc1)n2Cc1ccccc1 | 2 | -0.33 |
| O=C(c1ccc(F)cc1)[C@H]1CCCN(CCC(=O)N2CCOCC2)C1 | -6 | 0.78 |
| Cc1nc(N2[C@@H]3CC[C@H]2CN(C)CC3)c2ccccc2n1 | -5 | 0.61 |
| Oc1cccc(-c2cn(CC3(N4CCOCC4)CCCCC3)nn2)c1 | -11 | 1.38 |
| CN1CCCN(C(=O)Cc2cnn(-c3ccccc3)c2)CC1 | 10 | -1.43 |
| C[C@@H](Cc1ccccn1)N(C)C1Cc2ccccc2C1 | 0 | -0.04 |
| CNc1ncccc1C(=O)N[C@@H]1[C@@H]2CCO[C@@H]2[C@H]1N1CCCC1 | 3 | -0.47 |
| CCc1ocnc1C(=O)N1C[C@H](c2cccc(F)c2F)[C@@H]2[C@H]1C1CCN2CC1 | -4 | 0.62 |
| CC(C)n1ccc(CC(=O)N2C[C@@H]3CCCN3Cc3ccccc32)n1 | -10 | 0.86 |
| CCc1cc(CN(C)CCN2C[C@@H]3CC[C@H]2C3)on1 | -7 | 0.91 |
| COc1ccc(C2(CN[C@H]3CCOC3)CCC2)cc1 | -18 | 2.23 |

| Compound | % Inhibition [%] | Z score |
| --- | --- | --- |
| CCc1ccc(-c2n[nH]c3c2C2(C(=O)O)CC(N3)c3cc(Cl)ccc3O2)cc1 (stereo not drawn) | -10 | 1.47 |
| Cc1ccc(NC(=O)c2nnn(C3CCNCC3)c2C)cc1Cl | -4 | 0.44 |
| Cc1cc(C)cc(CC(C)NC(=O)NC2CCC(=O)N(C)C2)c1 (stereo not drawn) | -4 | 0.7 |
| CCOC(=O)c1c(C)n(Cc2ccccc2)c2cc(-c3ccccc3)c(O)cc12 | 2 | -0.28 |
| O=c1[nH]c2ccc(S(=O)(=O)NC3CCCC(C(F)(F)F)C3)cc2o1 (stereo not drawn) | 8 | -0.98 |
| CN1Cc2ccccc2-n2ccnc2C12CCN(C(=O)Cc1cccc(F)c1)CC2 | -9 | 1.2 |
| N#Cc1ccc(CN2C[C@H](C(=O)O)[C@@H](c3ccc(F)cc3)C2)cc1 | -3 | 0.58 |
| CC(C)OC(=O)C1C(=O)NC23CCCCC2C1c1ccccc1O3 (stereo not drawn) | 2 | -0.28 |
| COc1ccccc1[C@@H]1CN(c2ncnc3[nH]ccc23)[C@@H]2C3CCN(CC3)[C@@H]21 | 11 | -1.48 |
| COc1ccc(NC(=O)N2[C@H]3CC[C@@H]2c2cncnc2C3)c(C)c1 | -3 | 0.4 |
| Cc1cccnc1CNC(=O)NC1C2CCCC1CN(C1CC1)C2 (stereo not drawn) | 3 | -0.37 |
| CCNC(=O)CN1CCC[C@H](C(=O)c2ccc3c4c(cccc24)CC3)C1 | -10 | 1.26 |
| CCCn1c(=O)cc(C)c2ccc(OCC(=O)N3CCN(C)CC3)cc21 | -23 | 2.04 |
| C/C=C\Cn1c(C(=O)NC2CC2)cc2c(OCC)cccc21 | -16 | 1.76 |
| CN1CCN(C(=O)Cc2cccc3ccccc23)CC1 | -8 | 1 |
| N#Cc1ccc(C(=O)N2C[C@H](c3cccc(F)c3F)[C@@H]3[C@H]2C2CCN3CC2)cn1 | -7 | 0.84 |
| COc1cc(Cl)ccc1OCC#CCN1CCOCC1 | -8 | 0.83 |
| CC(C(=O)Nc1ccc(C#N)c(Cl)c1)N1CC2OCCN(C)C2C1 (stereo not drawn) | -6 | 0.8 |
| CC(C)n1nccc1C(=O)N[C@H]1COC[C@@H]1N1CCCC1 | -17 | 1.86 |
| CC(Cc1ccc(F)cc1)NC1CCCCNC1=O (stereo not drawn) | -15 | 2.25 |
| C1CCC2(C1)CCN(CCN1CCOCC1)C2 | 4 | -0.42 |
| Cc1cc(N(C)C2CCN(Cc3ccncc3)CC2)nc(C(C)C)n1 | 3 | -0.36 |
| N[C@H]1C[C@@H]1c1ccccc1OC(F)(F)F | 4 | -0.71 |
| CN1Cc2ccccc2-n2ccnc2C12CCN(C(=O)c1ccccn1)CC2 | 6 | -1.05 |
| CCCc1cncnc1N1C[C@H]2CC[C@@H](C1)N(CCC)C2 | 7 | -1.29 |
| CC(C)(NC(=O)c1cccs1)C(=O)NCCc1c[nH]cn1 | 1 | -0.09 |
| CC1CN(c2cncc(Br)c2)CC1N1CCOCC1 (stereo not drawn) | -3 | 0.48 |
